Target: T1, CTR9^(1–249) (human, UniProt Q6PD62 part only)
T1 construct: In the crystal it stood as part of the single-chain fusion m9; source: E. coli BL21(DE3) Codon Plus, co-expressed with a PAF1 fragment, purified (Ni-NTA, SEC)
Test: SEC; two fragments co-expressed in E. coli and co-purified; analytical size-exclusion column with SDS-PAGE of the fractions
Conditions: both partners purified

Row | Binder | binding result
1 | PAF1^([…])(D85N) (domain or fragment) not shown | binds
2 | PAF1^([…])(D95Y) (domain or fragment) not shown | binds
